Experimental data from article PMC12136788.
The list shows a part of the results.

T1: UNK ZnF1-3 (human, UniProt Q9C0B0 31-174)
T1 sequence: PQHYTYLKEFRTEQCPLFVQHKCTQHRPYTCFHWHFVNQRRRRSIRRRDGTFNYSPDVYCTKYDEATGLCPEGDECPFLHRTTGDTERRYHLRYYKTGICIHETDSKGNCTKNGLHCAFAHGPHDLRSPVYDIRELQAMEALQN

B1: chr12:97337435:97337436:+_ENSG00000139350_ENST00000266742|hu_mus|FALSE|FALSE (ssRNA)
RNA: GGGAGUUCUACAGUCCGACGAUCAGACUCAGCUGACGGCUCAUGGCUUUCAUUCUCUUCUUUCCCUGAAGAUCCCAUGAGGACAUUAAGAGGGCUGGAGUGCAGCACCAGACUGCUGGAGGCACCUGCAUUCUUCCUCAGAGGCAACAGAGGAUUGAGCAUCA
B2: chr6:114281168:114281169:-_ENSG00000196591_ENST00000368632|hu_hu|hu_hu_hu_mus_True|1_88 (ssRNA)
RNA: GGGAGUUCUACAGUCCGACGAUCUUCCAUUUUUCGGUAUAAACCAUAAUUUAACAGCAAGUUAUGAGUCAUCCGGAUUCUAUGAGGCUUCAUGGGAUGACCCUGGCCAUAAUAAUAAUUGCCAAUAUCACCAUCAUACUAGAACAACAGAGGAUUGAGCAUCA
B3: chr1:43162399:43162400:+_ENSG00000065978_ENST00000321358|hu_mus|motif|central (ssRNA)
RNA: GGGAGUUCUACAGUCCGACGAUCAUUCUGGUAAUUUUGCUGGUAAUUGCGUGGAGGACCCCUACGACGUGGAUAGCGUCGGUAAUGGUUACGGUCUGCUGCGUAUUUACUGCCUUGAACUGGAACUCCACCAGGGCCUGUAACCAACAGAGGAUUGAGCAUCA
B4: chr7:5108331:5108332:+_ENSG00000146587_ENST00000396912|hu_hu|FALSE|FALSE (ssRNA)
RNA: GGGAGUUCUACAGUCCGACGAUCUUGCACAUGUGCCUUAAGAUAGUUCUGUUUUGUGCAGUUUUAGGCUAUAAAUAUUCUAGUGCAUGUCCUUUGGUGGACAGACACAUGCAUUUUUGCUGGGUUUGGGUAAAACAGUAUACACAACAGAGGAUUGAGCAUCA
B5: chr5:37680062:37680063:+_ENSMUSG00000029121_ENSMUST00000031004|mus_hu|mus_mus_mus_hu_False|1_58 (ssRNA)
RNA: GGGAGUUCUACAGUCCGACGAUCUUUGGGUGUAGCUGGUACCUCGUACACAGGACCGUCAUACAUGCCCCUGGAAACACUAUGCAAUCCAAAAACCUUAUUCCUGAUUUUGACGCGCUGGUACAGGUGCUCCGGGAAUGGCUUCAACAGAGGAUUGAGCAUCA
B6: chr4:148702617:148702618:-_ENSMUSG00000028960_ENSMUST00000103212|mus_mus|FALSE|FALSE (ssRNA)
RNA: GGGAGUUCUACAGUCCGACGAUCGUUGGGAACUGAACAGAGCACAGGCUGUGGAGCAGAGGAGAAAGGAAAAGAGGAGGAAGUCUGUUUCUGAAGAGUUCAUUUCUUUAAAACACUUUAUGGUUUCAAAUCCUUUCUCACCCCCAACAGAGGAUUGAGCAUCA
B7: chr2:216981417:216981418:+_ENSG00000079246_ENST00000392132|hu_hu|hu_hu_hu_mus_True|58_58 (ssRNA)
RNA: GGGAGUUCUACAGUCCGACGAUCCUGAUACUGGUCCUUGCCAGCAAGGGCAUUAUCAGUGCCAUCUGUGCCAUAGAGGACUAAAGCAAUCUCAUCUUUGCUCUCCGAAAAUACCUGUCGUUGGACAAACAUAGUCAUCACUUUCAACAGAGGAUUGAGCAUCA
B8: chr4:42003652:42003653:+_ENSG00000014824_ENST00000513699|hu_hu|motif|central (ssRNA)
RNA: GGGAGUUCUACAGUCCGACGAUCGGUACCAAUAUAUGGAUGACUACAGGGAACCAUGUUUGAAAAGCUUCCAAAUGUCACGGAAUUCUGCCACUCCUGGCGGUCGCUGGGAUUACAGGCCGCCGCCCUGCAUCGCAGACGGAGCAACAGAGGAUUGAGCAUCA
B9: chr11:61589858:61589859:-_ENSMUSG00000004798_ENSMUST00000004920|mus_hu|motif|central (ssRNA)
RNA: GGGAGUUCUACAGUCCGACGAUCUUCAAGAAUAAUGCAUGCAGUUACAAAUGAGAGGUAGAAACACUGUAUUAAAGACCGGAAAAUACAAACGUCAUAUAAAUAAAUGUUCAAAUUAACUACUGGAAUUUCAUACAGAUAAAUCAACAGAGGAUUGAGCAUCA
B10: chr18:10004928:10004929:-_ENSMUSG00000047879_ENSMUST00000092096|mus_hu|motif|central (ssRNA)
RNA: GGGAGUUCUACAGUCCGACGAUCCUGAAGUCGCAAUUUAAGUCCUGUAAAAAGAUACUUGACUUCCUGAUUGAUAAAACAGCGGAGCUGAAGUUGAUUUUCCUUUCCUUUGGUGACUUCUUCUUCUUCAGAUUCUGUACAUUUCAACAGAGGAUUGAGCAUCA
B11: chr15:52101961:52101962:+_ENSG00000128872_ENST00000249700|hu_hu|FALSE|FALSE (ssRNA)
RNA: GGGAGUUCUACAGUCCGACGAUCUAUUUUCCUAUUCACUUGUUUUAUUGCUACUAGGCAACUCAGGAACACUCAGCUACUAAACAAAUUCUGGAAUUUGUUUAGUAACAAAUUACAGAGAAAAGAGGAAAAAAAAGACAAUGACAACAGAGGAUUGAGCAUCA
B12: chr12:39763582:39763583:-_ENSG00000139116_ENST00000544797|hu_mus|hu_hu_hu_mus_False|48_48 (ssRNA)
RNA: GGGAGUUCUACAGUCCGACGAUCCUCUAGGAACUGGGCAUUCACUUUGAAUUCAGGAGGGGGCAGCCCGUUUUUAAUCGCUGAGGUUUUUUUUUCUUCAAUACUCUUGAACAGGUGUCUAACAGCACGAGAGAUGAUGCCCUGCAACAGAGGAUUGAGCAUCA
B13: chr11:95532463:95532464:+_ENSG00000166037_ENST00000540830|hu_hu|FALSE|FALSE (ssRNA)
RNA: GGGAGUUCUACAGUCCGACGAUCCUUACUUGGGGAGCGUCGUAGAUCACUAUUAAGGAAAGGCUUAUCCGAAGGAUAUACUACAUAUGGAGAUGAAGAAUGCCGAACCAUGCUUCCAUUAGACCUUGAUGGCUCAGCAAAGCUCAACAGAGGAUUGAGCAUCA
B14: chr2:202488911:202488912:-_ENSG00000155755_ENST00000286196|hu_mus|hu_hu_hu_mus_False|58_108 (ssRNA)
RNA: GGGAGUUCUACAGUCCGACGAUCAUUUAACAUUUUUUCAUAAUCUCCAGUAGCAUUUCAGCAUUAUGUAACAAAAGAUCUAUUACAAAUACAUGUAUCUUAUAAAAAUACACUUAAAAACACGAGUGGGGAGCGCAGGCGCCACAACAGAGGAUUGAGCAUCA

The binders below were run against T1, UNK ZnF1-3 (assay: nsRBNS (natural sequence RNA bind-n-seq); RBNS binding buffer (assumed for nsRBNS): 25 mM Tris pH 7.5, 150 mM KCl, 3 mM MgCl2, 0.01% Triton X-100, 500 ug/ml BSA, 20 U/ml SUPERase-In, 4 C; UNK is unkempt and MSI1 is Musashi-1; names of the RNAs are library labels; protein concentration not given here; high values mean tight binding).
B1 showed a binding signal of 0.808 enrichment R.
In the case of B2, the binding signal is reported as 0.752 enrichment R.
In the case of B3, the binding signal is reported as 0.55 enrichment R.
With B4 the binding signal was 0.692 enrichment R.
Binder B5 has a binding signal of 0.626 enrichment R.
Work on B6 yielded a binding signal of 1.44 enrichment R.
For B7, the binding signal was 0.747 enrichment R.
Work on B8 yielded a binding signal of 1.6 enrichment R.
B9 was tested, and the binding signal was 1.5 enrichment R.
B10 showed a binding signal of 0.67 enrichment R.
B11 showed a binding signal of 1.28 enrichment R.
B12 was tested, and the binding signal was 1.47 enrichment R.
B13 showed a binding signal of 0.815 enrichment R.
Binder B14 has a binding signal of 1.08 enrichment R.
